Test system: anti-pSer133 antibody labeled with CS124-DTPA-Phe-NCS*Tb
Conditions: TR-RET

LRREILSRRP(pS)YRK-Fluorescein [SEQ ID NO:7]
binding affinity for Tb-chelate labeled anti-pSer133 antibody: sub-nM

— patent publication US20050064485A1, “Multiplex binding and activity assays” (priority 2003, published 2005)
